Measurements from PubChem BioAssay AID360 (National Center for Advancing Translational Sciences (NCATS), 2006).
About 550 (1.1%) of roughly 48,000 compounds were called active. Another 4% or so got no clear call; they are omitted. Rule as the data show it: active = potency below about 15 µM; inconclusive = mostly about 16 µM to 33 µM; inactive = weaker than that. The list shows a part of the results.

target: Lysosomal acid glucosylceramidase (Homo sapiens) (UniProt P04062); test: Glucocerebrosidase; details: purified enzyme, resorufin glucoside fluorescence (screen aimed at inhibitors), 20 min; series mostly up to 77 µM;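 also: the screen sought inhibitors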
How it was run: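 Compounds titrated against 0.2 nM normal enzyme, 30 uM resorufin beta-D-glucopyranoside substrate, citrate/phosphate buffer with taurocholate and tween-20, pH 5.9. Reaction ran 20 min at room temperature; fluorescence (Ex 548/Em 600) gave AC50.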
Potency is read from the fitted curve at half-maximal effect.

Sequence of UniProt P04062 (P04062 whole entry, looked up): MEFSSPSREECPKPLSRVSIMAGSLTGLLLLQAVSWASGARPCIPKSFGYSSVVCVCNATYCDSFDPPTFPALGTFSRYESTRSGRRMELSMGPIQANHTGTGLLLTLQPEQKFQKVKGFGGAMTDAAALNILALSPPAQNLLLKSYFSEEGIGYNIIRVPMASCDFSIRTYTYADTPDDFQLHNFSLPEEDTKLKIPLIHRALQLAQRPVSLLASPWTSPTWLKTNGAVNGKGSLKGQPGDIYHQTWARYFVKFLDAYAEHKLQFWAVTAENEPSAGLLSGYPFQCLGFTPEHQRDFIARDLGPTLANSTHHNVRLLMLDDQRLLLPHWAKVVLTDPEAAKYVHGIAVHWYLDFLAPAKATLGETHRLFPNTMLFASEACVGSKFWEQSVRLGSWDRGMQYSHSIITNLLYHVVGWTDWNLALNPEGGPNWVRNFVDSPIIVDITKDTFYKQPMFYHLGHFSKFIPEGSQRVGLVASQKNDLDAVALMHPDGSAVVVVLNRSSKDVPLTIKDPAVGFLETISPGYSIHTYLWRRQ

Potency, inactive:
CC1CCCCC1NC(=O)C1Cc2ccccc2CN1S(C)(=O)=O (stereo not given) > 76.9 µM, O=C(NCc1ccccn1)c1ccc(COc2ccc(Cl)cc2)o1 > 76.9 µM, CCOP(=O)(c1ccc(N(C)C)cc1)C(O)c1ccccc1OC (stereo not given) > 76.9 µM, CN1CCN(C(=O)c2cnn3c(C(F)(F)F)cc(-c4ccc5c(c4)OCO5)nc23)CC1 > 76.9 µM, CN(C)CCCNC(=O)Cc1ccc(Br)cc1 > 76.9 µM, COc1ccc(OC)c(C2=NOC(C(=O)NCCN3CCOCC3)C2)c1 (stereo not given) > 76.9 µM, O=C(C1CC1)N1CCc2cc(Br)cc(S(=O)(=O)NCC3COc4ccccc4O3)c21 (stereo not given) > 76.9 µM, O=C(O)c1cccc(-n2nnnc2SCc2ccccn2)c1 > 76.9 µM, Cc1cccc(N(CC(N)=O)S(C)(=O)=O)c1C > 76.9 µM, CCc1nnc(SCc2ccc(CSc3nnc(CC)n3N)cc2)n1N > 76.9 µM, COc1ccc(Cl)c(Cn2c(NCc3ccco3)nc3c2c(=O)n(C)c(=O)n3C)c1 > 76.9 µM, Cc1cc(Br)ccc1SCC(=O)OCC(=O)N1CCN(C(=O)c2ccco2)CC1 > 76.9 µM, O=C(CN(CC1CCCO1)C(=O)CCC(=O)Nc1nccs1)NCC1CCCO1 (stereo not given) > 76.9 µM, NC(=O)c1cc(-c2ccccc2)sc1NC(=O)Cc1ccc(S(=O)(=O)N2CCOCC2)s1 > 76.9 µM, COC(=O)CSc1nc2sc(C)c(C)c2c(=O)n1C > 76.9 µM, CC(=O)N1SC(N)=NC1c1ccccc1 (stereo not given) > 76.9 µM, Cc1cc(C)nc(Sc2ccc3nnnn3n2)n1 > 76.9 µM, O=C(c1ccc(N2CCCC2=O)cc1)N1CCOCC1 > 76.9 µM, CC1CCCCC1NC(=O)CSc1nc2ccccc2c(=O)n1Cc1ccco1 (stereo not given) > 76.9 µM, COc1ccc(N2C(=O)C3CCCN3C2c2ccccc2)cc1Cl (stereo not given) > 76.9 µM, CCOC(=O)c1cnc(-n2nc(C)cc2C)nc1-n1nc(C)cc1C > 76.9 µM, CCOCCc1nnc(NC(=O)COC)s1 > 76.9 µM, CC1CCCN(CCCNC(=O)CCn2nc(-c3ccccc3)ccc2=O)C1 (stereo not given) > 76.9 µM, Cc1cc(NC(=O)CCC(=O)N(C2CC2)C2(C(=O)NC3CCCC3)CCC(C)CC2)no1 (stereo not given) > 76.9 µM, COc1ccc2oc(C(=O)OCC(=O)c3ccc4c(c3)OCCO4)c(C)c2c1 > 76.9 µM
